# Source: PubChem BioAssay AID1460 (National Center for Advancing Translational Sciences (NCATS), 2008)
# Hit rate of the full screen: of about 270,000 compounds, about 5,800 (2.1%) were called active. The inconclusive results got no clear call from the source; some entries with a clear call stand among them for comparison. Calls come from the whole dose curve; as a rule, active = well fitted inhibition curve with a large enough effect; inconclusive = small, poorly fitted or top-dose-only effect; inactive = flat fitted curve, though single readings scatter. A potency beside an inconclusive call is a rough fit, not a confirmed value.
# Biological target: Microtubule-associated protein tau (Homo sapiens) (UniProt P10636)
# UniProt P10636, sequence (P10636 whole entry, looked up): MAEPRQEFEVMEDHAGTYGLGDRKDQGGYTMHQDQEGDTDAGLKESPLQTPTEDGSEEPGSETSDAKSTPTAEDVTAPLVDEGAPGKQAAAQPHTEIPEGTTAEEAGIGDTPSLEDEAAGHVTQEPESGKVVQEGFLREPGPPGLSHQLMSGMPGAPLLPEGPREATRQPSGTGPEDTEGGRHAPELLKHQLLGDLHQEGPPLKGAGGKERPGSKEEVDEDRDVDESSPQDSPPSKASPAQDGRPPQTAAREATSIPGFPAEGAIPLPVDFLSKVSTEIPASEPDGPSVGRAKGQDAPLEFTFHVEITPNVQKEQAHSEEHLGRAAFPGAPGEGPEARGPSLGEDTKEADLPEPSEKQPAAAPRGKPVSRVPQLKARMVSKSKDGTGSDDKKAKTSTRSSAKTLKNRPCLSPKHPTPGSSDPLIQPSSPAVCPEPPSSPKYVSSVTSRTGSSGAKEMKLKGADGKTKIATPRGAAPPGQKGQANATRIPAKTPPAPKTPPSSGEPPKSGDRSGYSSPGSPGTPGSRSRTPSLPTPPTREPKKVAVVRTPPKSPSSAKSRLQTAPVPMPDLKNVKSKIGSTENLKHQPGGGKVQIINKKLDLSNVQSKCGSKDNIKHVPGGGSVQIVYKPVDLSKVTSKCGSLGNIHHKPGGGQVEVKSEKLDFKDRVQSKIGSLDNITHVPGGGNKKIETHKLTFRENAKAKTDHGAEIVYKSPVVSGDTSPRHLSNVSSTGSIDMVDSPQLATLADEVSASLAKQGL
# Experiment: qHTS for Inhibitors of Tau Fibril Formation, Thioflavin T Binding; note: nearly all actives have a fitted effect of over 55% in size
# Settings: recombinant tau K18 P301L, heparin-induced fibrillization, ThT fluorescence; series mostly up to 57.4 µM; activity, negative = inhibition: at the top concentration
# Procedure, shortened: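 ThT emission at 510 nm, taken 1 hr after adding 30 uM dye, quantifies aggregates formed when 20 uM heparin acts on human tau K18 P301L for 6 hr at 37 C.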
# % is set by controls: 0 for no effect and ±100 for the full control effect; potency is the fitted concentration of half-maximal effect; tags give direction and shape of the fitted curve.
SMILES,Potency,"activity, negative = inhibition"
Cc1cc(C)n2nc(/C(C#N)=C/c3ccccn3)c(C#N)c2n1,active: 22.4 µM,–
O=C(CCCn1c(=S)[nH]c2ccccc2c1=O)N1CCN(c2cccc(Cl)c2)CC1,"inconclusive: 1.12 µM [inhibitor, full curve, poor fit]",–
O=C(NCC1CCCO1)c1sc(=S)n2c1[nH]c(=O)c1ccc(C(=O)N3CCCCC3)cc12 (stereo unspecified),"inconclusive: 10 µM [inhibitor, partial curve]",–
COc1ccc(S(=O)(=O)N(NC2=NS(=O)(=O)c3ccccc32)C(=O)C(C)C)cc1,–,inactive: -1.32%
CCC(=O)C1=C(c2ccc(OC)c(OC)c2)N(C(=O)CC)n2c(CC)nnc2S1,"inconclusive: 15.8 µM [inhibitor, partial curve]",–
CC(=O)c1ccc(O)c(CC=C(C)C)c1,–,inactive: -0.695%
O=C(CS(=O)c1ccc(C(F)(F)F)cc1[N+](=O)[O-])Oc1ccc(Cl)cc1 (stereo unspecified),active: 22.4 µM,–
O=C(Nc1cccc2ccccc12)/C(=C/c1ccc([N+](=O)[O-])cc1)NC(=O)c1ccccc1,"inconclusive: 22.4 µM [inhibitor, single point]",–
O=S(=O)(Nc1ccc(N2CCOCC2)cc1)c1ccc2ccccc2c1,"inconclusive: 0.708 µM [inhibitor, full curve, poor fit]",–
CC(=O)N/C(=C\c1ccccc1)C(=O)OCC(=O)N1CCCCCC1,–,inactive: -2.78%
CC(C)CCn1nnc2sc(-c3ccccc3)cc2c1=O,"inconclusive: 17.8 µM [inhibitor, partial curve, poor fit]",–
COc1ccc(Cn2c(O)cc(=O)[nH]c2=O)cc1,"inconclusive: 10 µM [inhibitor, partial curve]",–
COc1ccc(NC(C)(C)c2nnnn2-c2c(C)cccc2C)cc1,–,inactive: -3.92%
COc1ccc2c(c1)c1c(c(=O)n(-c3ccc(OC)c(OC)c3)c(=O)n1Cc1ccccc1F)n2C,–,inactive: 3.17%
COc1cc(NC(=O)CSc2nccn2C)cc(OC)c1OC,–,inactive: -3.81%
Nc1c(C(=O)Nc2ccc3c(c2)OCCO3)nnn1CCc1ccccc1,"inconclusive: 22.4 µM [inhibitor, partial curve]",–
CCc1nc(SCC(=O)N2CCN(c3ccccc3)CC2)c2oc3ccccc3c2n1,"inconclusive: 14.1 µM [inhibitor, partial curve, poor fit]",–
Cc1c(C(=O)NC2CCCc3ccccc32)oc2ccccc12 (stereo unspecified),"inconclusive: 11.2 µM [inhibitor, partial curve]",–
CN1CCN(C=NC2=NN(c3cccc(C(F)(F)F)c3)CC2)CC1,"inconclusive: 20 µM [inhibitor, single point]",–
COc1cc2[nH]c(=S)nc(Nc3ccc(NC(C)=O)cc3)c2cc1OC,"inconclusive: 28.2 µM [inhibitor, single point]",–
Nc1nc(-c2ccccn2)nc(N)c1Cc1c(F)cccc1Cl,–,inactive: -12.2%
Cc1ccc(Cl)cc1N1CCN(C(=O)CCCn2c(=O)[nH]c3ccc(Br)cc3c2=O)CC1,"inconclusive: 17.8 µM [inhibitor, partial curve]",–
Cc1[nH]c2ccccc2c1C(c1ccncc1)N1CCC(C)CC1 (stereo unspecified),"inconclusive: 20 µM [inhibitor, partial curve]",–

SMILES,Potency,"activity, negative = inhibition"
COc1ccccc1N1C(=O)C=C(Sc2nc(C)cc(C)n2)C1=O,"inconclusive: 22.4 µM [inhibitor, partial curve]",–
CCC1CCCCN1c1nc(-c2cccc(OC)c2O)nc2ccccc12 (stereo unspecified),"inconclusive: 15.8 µM [inhibitor, single point]",–
CCOC(=O)/C(=N/Nc1ccc(Cl)cc1)Sc1nnnn1-c1ccc(C)cc1,–,inactive: -9.17%
Cc1cccc(OCC(=O)N/N=C/C=C/c2ccco2)c1,"inconclusive: 17.8 µM [inhibitor, partial curve]",–
O=C(Nc1ccc(Cl)c(Cl)c1)Nc1ccc(N2CCCC2)c(S(=O)(=O)Nc2ccccc2Cl)c1,"inconclusive: 20 µM [inhibitor, partial curve, poor fit]",–
CSc1ccc(CCNC(=O)C(C)n2nc(C)c3sc4ccccc4c3c2=O)cc1 (stereo unspecified),"inconclusive: 28.2 µM [activator, partial curve]",–
Cc1c(C)n(Cc2ccccc2)c2ccc(C(=O)OCCN(C)C)cc12,"inconclusive: 35.5 µM [inhibitor, partial curve]",–
CC(=O)Nc1c(F)cc(Br)cc1F,–,inactive: -6.33%
Cc1ccc(C(=O)/C=C/C(=O)O)cc1,"inconclusive: 12.6 µM [inhibitor, partial curve]",–
CCOC(=O)N1CCC(NC(=O)c2ccc3c(c2)N(Cc2ccc(F)cc2)CCS3)CC1,"inconclusive: 20 µM [inhibitor, single point]",–
COc1ccc(-c2cc3n(n2)CCc2nc4ccccc4n2-3)cc1,"inconclusive: 5.01 µM [inhibitor, partial curve]",–
COc1ccc(NC(=O)CN2CCN(C(=O)c3ccco3)CC2)c(OC)c1,–,inactive: -3.54%
CC(=O)n1nc(-c2ccco2)nc1N,–,inactive: -8.91%
CC(C)(C)NC(=O)C(=O)NNC(=O)c1cccc([N+](=O)[O-])c1,–,inactive: -2.52%
O=C1NC(=S)N/C1=C/c1cc([N+](=O)[O-])ccc1O,active: 15.8 µM,–
O=C(CN1CCCN(S(=O)(=O)c2ccc(Br)cc2)CC1)Nc1ccc2c(c1)OCO2,"inconclusive: 39.8 µM [inhibitor, single point]",–
N#C/C(C(=O)c1ccccc1)=C1/CCCN1,"inconclusive: 0.501 µM [inhibitor, full curve]",–
O=C(C[n+]1ccc(C(=O)N/N=C/c2ccc(O)cc2)cc1)c1ccccc1,active: 8.91 µM,–
Cc1ccc(NC(=S)NCc2ccccc2)cc1S(=O)(=O)N1CCCCC1,–,inactive: 5.18%
O=C(CN1C(=O)CCC1=O)NNc1ccc2ccccc2c1,–,inactive: -6.75%
Cc1cccc(NC(=O)c2cc3ccccc3o2)c1,"inconclusive: 1.12 µM [inhibitor, full curve, poor fit]",–
COc1cc(CCNC(=O)c2ccc3c(c2)c(C)c(C)n3Cc2cccc(C)c2)cc(OC)c1OC,"inconclusive: 11.2 µM [inhibitor, partial curve]",–
COc1cc(O)c2c(=O)c3c(OC)c(O)ccc3oc2c1,active: 12.6 µM,–
